Source: the GPR68 mutational scans of Howard et al. (2025)

B1: GPR68, Q15743 (parent)
chain: MGNITADNSSMSCTIDHTIHQTLAPVVYVTVLVVGFPANCLSLYFGYLQIKARNELGVYLCNLTVADLFYICSLPFWLQYVLQHDNWSHGDLSCQVCGILLYENIYISVGFLCCISVDRYLAVAHPFRFHQFRTLKAAVGVSVVIWAKELLTSIYFLMHEEVIEDENQHRVCFEHYPIQAWQRAINYYRFLVGFLFPICLLLASYQGILRAVRRSHGTQKSRKDQIQRLVLSTVVIFLACFLPYHVLLLVRSVWEASCDFAKGVFNAYHFSLLLTSFNCVADPVLYCFVSETTHRDLARLRGACLAFLTCSRTGRAREAYPLGAPEASGKSGAQGEEPELLTKLHPAFQTPNSPGSGGFPTGRLA

Tests used:
[1] = variants of: B1; assay: cAMP reporter score (Enrich2 score, wild type = 0); higher = more signal; HEK293T, FACS bins
[2] = variants of: B1; assay: surface expression score (Enrich2 score, wild type = 0); higher = more signal; HEK293T, FACS bins

Variant	cAMP reporter score ([1]; pH 5.5)	cAMP reporter score ([1]; pH 6)	cAMP reporter score ([1]; pH 6, modulator: ogerin)	cAMP reporter score ([1]; pH 6.5, modulator: ogerin)	surface expression score [2]
R363I	0.69	-0.091	0.226	0.37	-0.64
R363K	0.352	0.498	0.459	0.697	0.379
R363L	-0.003	-0.058	0.304	0.587	-0.082
R363M	0.765	0.807	1.09	0.352	1.19
R363N	0.391	-0.292	0.971	0.571	1.41
R363P	0.97	–	0.713	–	–
R363Q	1.22	0.418	0.556	0.744	1.38
R363S	-0.908	-0.389	-0.703	1.21	-1.51
R363T	-0.146	–	0.453	0.087	–
R363V	0.979	0.552	1.28	0.765	1.79
R363W	0.092	-0.204	0.017	-0.243	-0.115
R363Y	-0.331	–	-0.055	-0.397	-0.151
R363_L364insG	0.432	–	0.708	0.872	0.548
L364_A365insG	0.549	0.787	-0.479	0.405	0.632
L364del	0.718	–	0.631	0.749	0.507
D7K	–	0.549	-1.08	-0.165	0.139
V29_T30insGSG	–	-1.44	–	–	-1.76
V29del	–	-0.127	-0.202	-0.566	-2.34
T30N	–	0.151	–	-0.902	-1.98
T30S	–	0.591	-0.821	-0.578	-0.246
V33Q	–	-1.97	–	-2.06	-2.26
V33_V34insGS	–	-0.637	-0.964	-2.06	-2.77
P37N	–	-1.59	–	-0.424	–
Y47F	–	-0.236	0.269	-0.045	-0.17
A52G	–	-0.89	0.534	-0.332	-0.404
G57D	–	-1.17	-1.37	-1.32	-3.34

Variant	cAMP reporter score ([1]; pH 5.5)	cAMP reporter score ([1]; pH 6)	cAMP reporter score ([1]; pH 6, modulator: ogerin)	cAMP reporter score ([1]; pH 6.5, modulator: ogerin)	surface expression score [2]
L60del	–	-0.73	-2.69	–	-4
N62P	–	-1.07	-1.17	-1.06	–
Y70K	–	-1.68	–	-1.89	2.84
I71_S73del	–	-0.613	-1.69	-1.21	-1.95
Q79P	–	-2	-1.7	-1.24	0.666
S88I	–	1.92	0.879	2.22	-0.13
S88N	–	-0.942	0.545	-0.463	–
S93D	–	-0.437	-1.85	-0.089	-3.08
S93M	–	5.64	0.255	–	4.33
C94D	–	-1.62	-0.677	-0.636	-2.58
C94L	–	-1.53	-2.52	–	–
C94_Q95del	–	-1.52	-1.08	-1.02	-1.5
C97M	–	-0.639	0.194	-0.661	3.48
C97_G98insGS	–	-0.509	-3.19	-2	–
Y102T	–	-0.888	-0.6	-1.18	2.21
Y102W	–	-1.94	-0.737	-2.01	-0.758
E103_N104insG	–	-0.762	–	–	-0.425
N104_I105insGSG	–	-0.233	-0.667	-1.48	–
I107A	–	-0.047	–	-0.458	–
I107G	–	-0.201	–	–	-1.72
V109H	–	-3.19	-3.27	-0.792	–
F111_L112insG	–	-1.99	-1.47	-1.94	–
L112_C114del	–	1.17	–	–	-1.17
C114_I115insGSG	–	-1.87	-0.707	-0.394	–
D118P	–	0.154	-1.55	–	–
D118V	–	-0.927	-4.2	–	–

Variant	cAMP reporter score ([1]; pH 5.5)	cAMP reporter score ([1]; pH 6)	cAMP reporter score ([1]; pH 6, modulator: ogerin)	cAMP reporter score ([1]; pH 6.5, modulator: ogerin)	surface expression score [2]
Y120A	–	-0.648	-0.707	–	-2.33
L121_A122insGSG	–	-0.117	-0.667	-0.333	-0.318
A124I	–	0.869	1.86	-0.435	-0.403
F127_R128insGSG	–	-0.536	-1.38	-0.434	–
R128A	–	-0.607	0.64	0.088	-1.34
R128M	–	-0.852	0.002	-0.438	1.47
F129A	–	1.39	–	-0.393	–
V139D	–	-1.78	–	-2.27	-4.09
V139K	–	-0.747	–	-1.6	-2.41
V141E	–	-1.42	–	-1.55	-3.38
V141R	–	-1.49	-2.48	-1.36	-0.429
V144_I145del	–	-0.635	–	-1.61	-2.69
W146A	–	-0.434	–	-0.601	-2.94
W146D	–	-1.02	-3.36	–	-1.31
W146E	–	-0.19	-2.11	-1.6	-2.3
W146M	–	-1.17	-2.83	-1.3	-3.72
W146S	–	-0.877	–	-0.526	–
W146Y	–	-0.591	-1.31	–	–
L150H	–	-0.456	-3.59	-2.04	-2.38
S153_Y155del	–	-0.902	-0.884	-1.45	-2.04
I163A	–	-0.423	–	2.74	–
E166V	–	-0.527	-0.597	0.083	-0.403
N167V	–	-0.95	-0.401	-1.66	1.24
N167W	–	-0.652	-0.431	-0.903	0.807
C172G	–	-1.08	-2.07	-1.21	-1.73
C172N	–	-1.75	-1.69	-2.51	-1.65

Scores with a large standard error are left out. Two further conditions of the source, in which the scores hardly spread, are not listed. Read del as a deletion of the residues named and ins as an insertion between two positions. For part of these data: The data file names ogerin without a concentration.
